# The list shows a part of the results. Values come from read counts of a selection and are noisy.
# Test system: SARS-CoV-2 3CLpro (nsp5)
# Test: substrate phage enrichment score (protease-eluted vs HEPES control, +1 offset) (ratio); higher = better cleaved substrate
# Details: selection round: 4; protease elution time: 15 min
# Description: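 Random heptapeptide substrate phage display (M13 pIII fusion, heptapeptide between an N-terminal biotinylated AviTag GLNDIFEAQKIEWHE and pIII; phages immobilised on streptavidin) eluted by cleavage with 50 nM protease in 20 mM HEPES at 37 °C. Selected phages were NGS sequenced, and the enrichment score is (reads in protease sample + 1)/(reads in HEPES blank-selection control + 1).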
row,Substance,substrate phage enrichment score
1,VRTDGSA,> 25
2,VQSNMIP,> 21
3,TDDYGGS,> 21
4,HSRYGCN,4.2
5,CPQRTLP,0.571
6,ARQDGLT,> 29
7,CHRITSR,1.08
8,ASQAALQ,> 61
9,PRTQMSR,15.5
10,NSSHLTR,0.833
11,NEMRTNR,0.28
12,DCWTDRD,0.714
13,NKAAHHH,2.12
14,RAMPCNR,7.6
15,CERFQGY,1.43
16,SEQLSAP,0.983
17,SLYLETP,> 27
18,RPHIIIT,0.77
19,DTCPQDD,1.09
20,NETRPKW,15
21,GPHKATR,7.67
22,GISQGAL,> 219
23,KCDDQSC,0.667
24,WPMCFPP,> 57
25,NKHLQTQ,> 28

row,Substance,substrate phage enrichment score
1,WRPARNT,10.5
2,VRPPIII,2.38
3,FSKPATV,> 31
4,SKGTDKR,10
5,GPTAAEV,> 33
6,VRTLTTN,2.29
7,HPQPNPP,> 37
8,SHPLHRD,> 22
9,QGYEPVQ,4.79
10,RAEPPTN,> 27
11,PSHALPD,16
12,NTWQDFT,17
13,RQGTASS,6.43
14,RSAAAHH,0.774
15,NPQALRY,0.294
16,PSIPLNP,5.57
17,NSIQQES,> 37
18,SWYVGAP,0.5
19,TSSCTPR,0.632
20,RPTATDP,0.846
21,TGSRSAD,3.6
22,AISAPES,14
23,SAAPHQQ,1.83
24,SEEGVLY,0.793
25,YQKSTLQ,95.1

row,Substance,substrate phage enrichment score
1,PSLRART,2.29
2,DSWQLRN,> 50
3,PALQSGS,> 138
4,EAKCAFG,33.5
5,SRAHCAR,> 74
6,CPSQKHH,6.38
7,AHGRNEN,1.38
8,RCAQIEE,> 29
9,TWSTQLQ,> 23
10,RCTVLQS,> 255
11,YLREPER,> 43
12,HGVSMLQ,> 43
13,PETSDIS,4.2
14,LSKTRLH,> 29
15,ATRALLQ,> 529
16,RDVSGLT,> 29
17,VGMQGRC,4.9
18,SALRTDA,1.25
19,PNLQGGS,2.67
20,IEILQYK,> 65
21,EKITMQA,2.56
22,KELTAGT,3.69
23,TQQRLTH,0.316
24,LNGTINR,1.33
25,KGAAHHH,0.867

row,Substance,substrate phage enrichment score
1,RTAAHHH,0.91
2,TGSVCFQ,> 48
3,VLREPVG,1.82
4,NRAGQYG,1.28
5,CYSPYEW,15.3
6,CQPNMFM,84.5
7,PCEMNNA,> 27
8,APINWQG,19.5
9,RGRTYES,3.11
10,ERSPALG,2.55
11,PNVSVLQ,54.5
12,PRSVNDS,0.295
13,SAAAHYH,0.576
14,DYRPSKT,3.44
15,VRHDVIV,5.5
16,LPGTGTG,> 21
17,TSAKMSS,4.83
18,ISEPQAW,1.28
19,CSAAHHH,0.474
20,RLQSGNR,71.3
21,SGAPCSH,> 32
22,PCEAENK,0.733
23,SQQHFQG,0.474
24,PVKVRLQ,> 43
25,YGLRELK,3.67

row,Substance,substrate phage enrichment score
1,SLCSFSL,> 23
2,KEQAGKI,4.55
3,CAAAPHQ,1.58
4,INPQKRP,> 39
5,TCSMRDW,> 23
6,RSPQRLT,> 57
7,RAPVGMP,> 32
8,EPIRPKC,3.12
9,ENYSDSY,7.67
10,SAAPQHH,1.36
11,VSSGGLV,> 22
12,RLNFQGG,2.62
13,AQALTGR,7.67
14,IRSGCPT,13.5
15,DAHDDYR,8.5
16,CHPTLLQ,> 23
17,AQDTGAS,2.43
18,IRSTTNE,3.17
19,GRTSQLQ,> 150
20,VTRSTLH,> 93
21,SCILQAR,39
22,SHVGSCR,> 40
23,APAGSRT,1
24,AEMPDPR,> 26
25,AEGTMPC,> 35

row,Substance,substrate phage enrichment score
1,EIRGFYD,2.37
2,HTRLQAR,> 25
3,VPSDKPP,0.667
4,VEHFDVK,0.5
5,LRNWHST,4
6,LEAWPQS,1.88
7,RLMRNAP,1.38
8,MPNGVLT,2.38
9,CSRTFPS,> 82
10,EQERSSP,> 21
11,VSCEANT,> 29
12,REAPNRA,> 24
13,CRTCCKT,0.318
14,KHDVDVR,0.6
15,SNQTSQQ,4.33
16,SCAPTRE,> 32
17,SYETNRN,1.54
18,PCTSHQR,> 29
19,APHLNDT,1
20,CSAELPR,1.75
21,QAPAIGR,> 79
22,TYTSGSN,> 21
23,ACTLNRG,4.28
24,PCVQCAP,0.0952
25,GACRLHC,> 51

row,Substance,substrate phage enrichment score
1,KQRITSK,10
2,SDRPIYM,3.33
3,NHNPTEQ,> 23
4,GSSAAAH,0.25
5,MPAAHHH,0.556
6,ERPCYKQ,> 32
7,TRQSNAW,13
8,TSLPNGK,1.44
9,CAAAHQH,0.788
10,GPHIIIT,1.5
11,TKQPKPV,0.571
12,KPVQLQS,268
13,PAKHSAP,2.46
14,LRAPPAT,1.3
15,RREQNSR,0.895
16,ACGSSRF,5
17,NTWWTPH,> 29
18,PMAAHHH,0.413
19,LYFQGGS,1.62
20,ETDGISN,1.8
21,RPETNAY,8.33
22,RHVSKAG,> 81
23,LSRQNTR,> 48
24,HEPTLPT,> 37
25,VQVRLQS,> 87

row,Substance,substrate phage enrichment score
1,HPAMFDS,10
2,TCIMQSQ,> 43
3,GAPRTRP,> 23
4,ACSYLIP,> 21
5,PEAENGH,0.2
6,VPSDTGQ,0.724
7,FAAAHHH,0.602
8,PTPLLSG,> 48
9,PSSFNGC,21
10,AWSGNGS,> 23
11,GNRTKLQ,> 25
12,QLYFQGG,1.02
13,LPKTCEN,3
14,SPTWVEP,> 38
15,ELYGQGG,1.75
16,PYSWQQR,1.84
17,EPSNMSQ,> 35
18,SLNVLSR,2.52
19,DIGRQTV,3.17
20,GWAAHHH,1.6
21,AERNTIC,> 63
22,HDISRDW,4
23,HCGPVVN,0.977
24,TQDGGGT,19
25,TQTQLHS,7.36

row,Substance,substrate phage enrichment score
1,QHNNLSR,8.67
2,ANAAAHH,0.564
3,DHVTILQ,58.7
4,QRCNAAA,> 48
5,PRMYTNP,1.62
6,SKSDGHT,> 21
7,SCAPIVR,> 28
8,TPTVTQR,> 52
9,PHWTPGT,> 38
10,QREGCFW,> 23
11,AHADTIQ,4.6
12,VKSRTDG,> 32
13,AHESGAI,7
14,RANCLMQ,13
15,KPDFQGG,11.5
16,RSEFPGR,14.5
17,NPTPISN,> 24
18,RNGTTSN,1.09
19,QTFCRSR,> 123
20,ARQESSG,0.421
21,QPFLRER,6.4
22,LCRDRCM,4.3
23,AEQKLIS,0.368
24,MPNRVSP,8.4
25,SCNGIGS,8.5

row,Substance,substrate phage enrichment score
1,EGAHAPW,0.923
2,TSAHHHH,0.526
3,PIERFDT,0.571
4,MPIQCHP,> 38
5,SVAAHHH,0.95
6,SQRSLAP,1.34
7,THRGNLD,1.5
8,VVHESLS,> 30
9,SRQYFQG,5
10,HEAAHHH,0.938
11,AQGNAVC,0.711
12,PQAGLSG,> 38
13,SCTRWSC,> 22
14,VTPRCLK,0.565
15,SSTTTLQ,> 25
16,SQLGPSK,> 23
17,HNHHHGA,0.444
18,APVRLQS,881
19,NVQLQAS,> 116
20,WPRWPND,1.52
21,PSYELKA,> 54
22,SYDLNHG,7
23,CPYEETI,3.17
24,KRWHPGD,> 40
25,TKCSLVN,8.33

row,Substance,substrate phage enrichment score
1,AHLKSHN,> 24
2,QTGDDPV,0.0714
3,VTISRQG,15.5
4,RTGLNTS,17.3
5,TSSAAHH,0.25
6,QTLEHRY,2.14
7,ARETVRG,> 40
8,RDLLRAP,3
9,PKSRANW,> 31
10,KESDKET,> 34
11,SEQVTLQ,141
12,NELTLDP,7.8
13,NNCVNDR,> 49
14,HQKEPST,0.889
15,CNTRNMG,0.429
16,TKTMSAH,1.44
17,NEPITFR,> 39
18,TSLQSRE,20
19,RTYSHHM,> 22
20,PASPVLQ,> 401
21,LFEQTSN,> 26
22,WCVAPDR,> 25
23,SGPQVNR,12
24,SSCEYKR,4.17
25,GNCHKET,1.11

row,Substance,substrate phage enrichment score
1,GPHLPNA,1
2,FHHHHGA,3.27
3,RPGRHSE,0.5
4,FRESEEN,2
5,MPFAQSH,2.78
6,TARWSET,12.5
7,NRAPNLQ,> 28
8,LDPLTAG,2
9,NKRPVRS,0.087
10,ISKLQSG,100
11,PRVDPCG,2.86
12,AYDWPSE,> 31
13,LPGNQRG,> 129
14,MRRPIAQ,2.06
15,SVDSCSA,> 25
16,GQSSLLR,> 32
17,VTLQAGI,> 21
18,RVRSDHH,14
19,PTTNSMQ,> 52
20,HEPKALR,> 21
21,CSYDGRQ,> 33
22,YRGGNTQ,0.88
23,QAASETR,0.333
24,KCTPHKV,0.381
25,RGSQHNN,> 21

row,Substance,substrate phage enrichment score
1,TAGQPNT,2.22
2,TDRQNPW,> 23
3,TPNSCIK,> 25
4,HCHHHHG,0.7
5,AQAAHHH,0.87
6,ARVRLQS,> 442
7,MPLRAAQ,0.405
8,EVHVMCN,> 111
9,NTITVMG,2.45
10,GPSLMRG,0.435
11,SNIKAQC,5.7
12,AKSWDGS,6
13,SNVLNCR,0.966
14,HGHESGE,18
15,ESCKREL,0.526
16,RPTSKLQ,> 26
17,QDTWKDG,1.12
18,CPHRGVP,1
19,VLYFQGG,4
20,GGSECEH,> 21
21,ASESSLQ,14.8
22,AAHHHHH,0.473
23,AHTMTHP,5.2
24,TADNPPE,11.3
25,KPRIEQE,> 33

row,Substance,substrate phage enrichment score
1,APRVGFV,1.75
2,QRCVTHD,1.83
3,LNKLQSN,> 42
4,RMEHRGP,> 28
5,CRLSRRA,> 22
6,WQTTKPR,6.2
7,YTEEPSG,1.3
8,CRTYMTT,2.28
9,RSPQILK,0.0952
10,RSSSASP,0.636
11,ASIGPLT,0.364
12,CGVRTGG,1.21
13,GSPGEEE,> 27
14,THNERGR,12.5
15,SILHPHG,0.533
16,QRDGADH,> 32
17,DFSVNAN,> 42
18,ELTNESN,1.66
19,SRSEDGT,1.91
20,HPNALKG,> 35
21,YYFQGGS,2.29
22,QGHHVSC,> 156
23,DYKDRLS,10
24,VYNLKSN,> 56
25,LKYSHCQ,2.71

row,Substance,substrate phage enrichment score
1,LKNENGR,10
2,TRRTTLQ,> 317
3,CGQDLKW,4.2
4,NKEAFSQ,> 27
5,ENAETRS,> 30
6,EHDLKPL,> 223
7,AIRNGEM,> 27
8,ITSPAGM,3.15
9,KTSKGCP,3.83
10,KETRDSH,0.438
11,SYHDSLM,12.5
12,SRYYESR,4
13,DLHGANG,> 21
14,ITSVRET,3.12
15,TAVLQGD,> 22
16,TTTHMNL,3.12
17,RGEQVSE,10.3
